2 molecules from patent publication US20190062448A1, “ANTI-CD39 ANTIBODIES, COMPOSITIONS COMPRISING ANTI-CD39 ANTIBODIES AND METHODS OF USING ANTI-CD39 ANTIBODIES” (Tizona Therapeutics, priority 2017, published 2019) can be followed below.

Changes are numbered by the printed parent chain. Entries after “also recorded” stand apart in the source; their conditions may differ.

One assay has as its target T1, hCD39-ECD (Homo sapiens, UniProt P49961).
T1 sequence (P49961 38-478 limits assumed): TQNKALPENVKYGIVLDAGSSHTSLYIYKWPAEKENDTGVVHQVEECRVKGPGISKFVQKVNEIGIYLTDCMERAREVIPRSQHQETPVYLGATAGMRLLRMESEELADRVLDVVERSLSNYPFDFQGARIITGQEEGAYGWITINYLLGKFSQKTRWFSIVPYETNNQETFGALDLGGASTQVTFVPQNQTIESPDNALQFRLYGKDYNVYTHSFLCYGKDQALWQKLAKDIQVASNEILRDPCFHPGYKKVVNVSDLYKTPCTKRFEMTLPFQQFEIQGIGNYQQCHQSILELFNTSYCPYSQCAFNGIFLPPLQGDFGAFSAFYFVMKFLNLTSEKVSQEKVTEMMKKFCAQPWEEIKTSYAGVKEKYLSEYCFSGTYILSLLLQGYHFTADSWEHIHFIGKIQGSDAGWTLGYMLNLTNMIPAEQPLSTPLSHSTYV
The assay can be described thus: rhCD39-ECD ATPase inhibition (Malachite Green free phosphate). The class given is biochemical. On the set-up: purchased R&D Systems. The conditions noted are these: 50 μg/ml antibody; 10 μM ATP; vs isotype or buffer controls. The procedure: 0.04-3.3 nM rhCD39-ECD (R&D Systems) was incubated with buffer, 50 μg/ml antibody or 100 μM POM-1 (Alpha Aesar) for 1 hr at 37° C. in assay buffer (25 mM Tris pH 7.5, 5 mM CaCl2) at which point ATP (Sigma) was spiked in to a final concentration of 10 μM, and the reaction further incubated for 30 min 37° C. Production of free phosphate (Pi) was subsequently measured using Malachite Green Phosphate Detection kit (R&D Systems).
(§1) Also, an 18 hour incubation was used with the antibody or isotype control. Finally, an additional 30 second baseline dip in buffer between antigen capture and dipping into a second competitor antibody for 300 seconds was used.

Assay [1] addresses T2, recombinant human CD39 extracellular domain (rhCD39-ECD-His) (Homo sapiens, UniProt P49961).
T2 construct: His (C); purchased R&D Systems
T2 sequence (P49961 38-478 limits assumed): T1 sequence (P49961 38-478 limits assumed)
Put plainly: Binding kinetics to recombinant CD39 ECD by biolayer interferometry (Octet). An excerpt: FIG. 1 provides a table showing monovalent affinity of anti-huCD39 antibodies to recombinant human CD39 extracellular domain. The table provides binding kinetics of anti-CD39 antibodies interacting with soluble recombinant human CD39 (ENTDP1) extracellular domain (ECD) by biolayer interferometry (ForteBio Octet). Anti-CD39 antibodies were captured on an anti-human Fc sensor and exposed to recombinant human CD39 ECD at concentration ranging from 10-300 nanomolar. The kinetic data was globally fit with a simple 1:1 Langmuir binding model to yield on-rate (kon) and off-rate (koff) values. The equilibrium dissociation constants (KD) were calculated from the kon and koff values.
Binding kinetics were measured using the Octet Red96 system (ForteBio) at 25° C. in running buffer (1× Pall ForteBio Kinetics Buffer diluted into PBS or Tris pH 7.4). In brief, 1.25 mg/ml of unlabeled anti-hCD39 antibodies were immobilized onto anti-human Fc sensors. After a short baseline step in running buffer, the sensors were exposed to varying concentrations (10-300 nM) of rhCD39-ECD-His (R&D Systems) for the association step. Dissociation of the complex was monitored upon exposure of the sensors to running buffer once again. […] KD was calculated from the ratio of kd to ka.
PF=poor fit. […] The equilibrium dissociation constants (KD) were calculated from the kon and koff values.
In general terms: In BLI a coated tip is dipped into the sample, and binding shifts an interference pattern.

Assay [2] deals with T3, human CD39 on CHO CD39 cells (Homo sapiens, UniProt P49961).
T3 construct: expressed in transfected cells; host or cells: Chinese Hamster Ovary K1 (CHO)
T3 sequence (P49961 1-510): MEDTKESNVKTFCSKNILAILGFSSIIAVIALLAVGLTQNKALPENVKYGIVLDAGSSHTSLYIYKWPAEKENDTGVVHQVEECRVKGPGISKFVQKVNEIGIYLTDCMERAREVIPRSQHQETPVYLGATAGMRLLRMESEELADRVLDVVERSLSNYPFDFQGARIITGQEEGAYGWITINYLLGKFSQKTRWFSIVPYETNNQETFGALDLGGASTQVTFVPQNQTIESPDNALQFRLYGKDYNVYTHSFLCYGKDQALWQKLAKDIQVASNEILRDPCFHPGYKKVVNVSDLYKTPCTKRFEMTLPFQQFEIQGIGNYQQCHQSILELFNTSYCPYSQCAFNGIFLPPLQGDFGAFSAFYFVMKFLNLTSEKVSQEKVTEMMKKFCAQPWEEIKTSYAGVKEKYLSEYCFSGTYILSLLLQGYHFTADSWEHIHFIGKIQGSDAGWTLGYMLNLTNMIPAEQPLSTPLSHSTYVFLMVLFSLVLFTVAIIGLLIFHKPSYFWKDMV
The assay can be described thus: Binding to CHO cells expressing human CD39 (flow cytometry). The procedure: Binding of anti-CD39 IgGs to Chinese Hamster Ovary K1 (CHO) CD39 cells. 100 nanomolar IgGs (each antibody is indicated as a unique clone number in the FIG.) were incubated at 25° C. for 30 minutes on ice in phosphate buffered saline (PBS) with parental CHO cells or CHO cells engineered to express either human or cynomolgus macaque (Macaca fascicularis) CD39 (CHO CD39 cells). Cells were then washed with ice cold PBS and incubated with a fluorescently labeled goat-anti-human IgG for 20 minutes on ice. Cells were washed and resuspended in ice cold PBS prior to analysis by flow cytrometry. Fold over background binding levels represent the ratio of median fluorescence intensity (MFI) values for anti-CD39 antibodies binding to CHO CD39 to MFI values for anti-CD39 antibodies binding to the parental CHO cells.

Assay [3] concerns the target T4, CD39 expressed on MEL-28 cells (Homo sapiens, UniProt P49961).
T4 construct: endogenous in cells; host or cells: MEL-28
T4 sequence (P49961 1-510): T3 sequence (P49961 1-510)
Put plainly: Cellular CD39 ATPase inhibition (Malachite Green), Example 15. The class given is cell-based. As to the method: Indicated cells were incubated in assay buffer with 10-25 μg/ml antibody, 100 μM POM-1 or 100 μM ARL for 30 min at 37° C. 5% CO2. ATP was added to a final concentration of 50 μM and the incubation continued for 15 min. Supernatant was evaluated for free phosphate (Pi) using the Malachite Green Phosphate Detection kit. Palivizumab is used as an isotype control and POM-1 and ARL are non-specific small molecule inhibitors of CD39.
as §1

In assay [4] the target is T5, human-mouse CD39 chimeras (Homo sapiens, UniProt P49961, D150A/E143Q/E153S/L144S/N158S/R147E/R154T/S157K/V151A).
T5 construct: expressed in transfected cells; host or cells: CHO cells
T5 sequence (P49961 1-510 E143Q/L144S/R147E/D150A/V151A/E153S/R154T/S157K/N158S): T3 sequence (P49961 1-510) with E143Q, L144S, R147E, D150A, V151A, E153S, R154T, S157K, N158S
The assay can be described thus: Binding to human-mouse CD39 chimeras and point mutants expressed in CHO cells (FACS). The conditions noted are these: 15 μg/ml antibody. The procedure:
Chimeras were generated by replacing human CD39 with mouse CD39 sequence in mammalian expression vectors. The chimeras were expressed in CHO cells and the ability of anti-human CD39 antibodies to bind the chimeras tested via FACS. In brief, cells were washed and blocked in FACS buffer (PBS/2% FBS) for 30 min on ice. They were then incubated with 15 μg/ml anti-human CD39 antibodies diluted in FACS buffer×1 h on ice. After 2 washes, cells were incubated with fluorescently labeled anti-human Fc antibodies, anti-mouse Fc antibodies, or anti-mCD39 antibody (R&D Systems 495826) diluted in FACS buffer per manufacturers' instructions×30 min on ice. After 2 washes, cells were resuspended in FACS buffer and analyzed on BD Fortessa. Data was processed with FlowJo. Positive binding was scored as “yes” and lack of binding was scored as “NO” and examples of FACS plots used to generate this table are in FIGS. 14.F and 14.G.
Chimeras were generated by mutagenesis of Chimera #2 or WT hCD39 expression vectors. Residues for mutagenesis were chosen based on divergence between human and mouse CD39. The chimeras were expressed in CHO cells and the ability of anti-human CD39 antibodies to bind the chimeras tested via FACS, as described in FIG. 14E. Table 2. Positive binding was scored as “Yes” and lack of binding was scored as “No” and examples of FACS plots used to generate this table are in FIGS. 14.F and 14.G.

B1: 27549: anti-hCD39 antibody that inhibits ECD ATPase activity but not cellular CD39; separate bin (antibody)
heavy: QVQLVESGGGVVQPGRSLRLSCAASGFTFSSYGMNWVRQAPGKGLEWVAVIWYDGSNKYYADSVKGRFTISRDNSKNTLYLQMNSLRAEDTAVYYCARDLGGYSYGEPYYYYYGMDVWGQGTTVTVSSASTKGPSVFPLAPCSRSTSESTAALGCLVKDYFPEPVTVSWNSGALTSGVHTFPAVLQSSGLYSLSSVVTVPSSSLGTKTYTCNVDHKPSNTKVDKRV[human IgG4 Fc with S228P (EU numbers) left out here]
light: EIVLTQSPGTLSLSPGERATLSCRASQSVSSDYLAWYQQKPGQAPRLLIYGASSRATGIPDRFSGSGSGTDFTLTISRLEPEDFAVYYCQQAHSSPYTFGGGTKVEIKRTVAAPSVFIFPPSDEQLKSGTASVVCLLNNFYPREAKVQWKVDNALQSGNSQESVTEQDSKDSTYSLSSTLTLSKADYEKHKVYACEVTHQGLSSPVTKSFNRGEC
modifications: Synthetic HC, 27549; Synthetic LC, 27549
notes: separate bin
Regarding B1, the “inhibition of ATPase activity of soluble hCD39 ECD (μM Pi)” value with hCD39-ECD is “able to inhibit the hydrolysis of ATP by hCD39 ECD; also recorded: directly inhibit the ATPase activity of sol CD39 ECD; also recorded: can only inhibit ECD ATPase activity”. In addition, the “binding to soluble recombinant human CD39 ECD (in words)” value in assay [1] is “can bind ECD and cellular CD39; also recorded: binds both ECD (FIG. 1) and cells well”. Also, in assay [2], the “binding to cellular human CD39 (in words)” value was “can bind ECD and cellular CD39; also recorded: being able to bind to CD39 expressed on cells; also recorded: binds both ECD (FIG. 1) and cells well”. Further, the “inhibition of ATPase activity of CD39 expressed on MEL-28 cells” value in assay [3] (10-25 μg/ml antibody, 50 μM ATP, vs isotype control) is recorded as “unable to inhibit”. The “inhibition of cellular CD39 ATPase activity” value in assay [3] (cell line not given) is “does inhibit cellular CD39; also recorded: can only inhibit ECD ATPase activity”.

B2: 31418: inhibitory anti-CD39 antibody, contacts E143-N158 incl. D150 and E153 (antibody)
heavy: QVQLVQSGAEVKKPGASVKVSCKASGYTFKSYEMHWVRQAPGQGLEWMGRINPSGGSTWYAQKFQGRVTMTRDTSTSTVYMELSSLRSEDTAVYYCARGKREGGTEYLRHWGQGTLVTVSSASTKGPSVFPLAPCSRSTSESTAALGCLVKDYFPEPVTVSWNSGALTSGVHTFPAVLQSSGLYSLSSVVTVPSSSLGTKTYTCNVDHKPSNTKVDKRV[human IgG4 Fc with S228P (EU numbers) left out here]
light: EIVLTQSPGTLSLSPGERATLSCRASQSVSSSYLAWYQQKPGQAPRLLIYGASSRATGIPDRFSGSGSGTDFTLTISRLEPEDFAVYYCQQYYFYITFGGGTKVEIKRTVAAPSVFIFPPSDEQLKSGTASVVCLLNNFYPREAKVQWKVDNALQSGNSQESVTEQDSKDSTYSLSSTLTLSKADYEKHKVYACEVTHQGLSSPVTKSFNRGEC
modifications: Synthetic HC, 31418; Synthetic LC, 31418
notes: D150 and E153
In the case of B2, the “binding to Chimera #2 (human E143-N158 replaced by mouse sequence)” value in assay [4] is recorded as “inability to recognize Chimera #2”.
